Assay results taken from the supplement of paper PMC10126150.
Values marked as one replicate rest on one cluster of the flow cell; about a third of the high ones do not repeat.

test system: ATP; test: switch fluorescence ratio, 500 uM ATP over buffer (Cy3 cluster intensity, sum of 5 cycles each) (fold (ratio)); higher = stronger signal-on switching upon ATP binding; sequences stand for … in TCGTCGGCAGCGTCAGATGTGTATAAGAGACAGTTTTTTTTTTTTTTTTTTTTTTTTT…TC; details: aptamer strand: ATP DNA aptamer (quencher-CACCTGGGGGAGTATTGCGGAGGAAGG + anchor), 100 nM annealed; ATP concentration: 500 uM; one replicate
Procedure, shortened: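 Imaging in selection buffer was followed by imaging after 15 min with 500 uM ATP at 22 °C, for Cy3-labelled switching-strand clusters annealed to 100 nM quencher-labelled ATP aptamer on a modified Illumina MiSeq flow-cell. Five of these buffer/ATP cycles ran, separated by NaOH stripping and re-annealing. The fluorescence ratio per cluster is summed target-cycle over summed buffer-cycle Cy3 intensity, averaged per switch-domain sequence; clusters outside 100-1000 RFU were removed.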
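Further: ATP exposure 15 min at 22 °C before imaging.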

Question: How did the switch fluorescence ratio turn out when CAGTACTTTT was run?
Answer: 0.952

Question: How did the switch fluorescence ratio turn out when CAGTAGATCG was run?
Answer: 1.02

Question: Which switch fluorescence ratio does the source give for CAGTAGATGT here?
Answer: 1.03

Question: How did the switch fluorescence ratio turn out when CAGTAGGCCC was run?
Answer: 0.954

Question: For CAGTAGTCAC, which switch fluorescence ratio is on record?
Answer: 1.11

Question: For CAGTATGTTA, which switch fluorescence ratio is on record?
Answer: 1.02

Question: With CAGTATGTTG as the sequence, how does the switch fluorescence ratio read?
Answer: 0.951

Question: CAGTCAAATA was tested. Which switch fluorescence ratio did it give?
Answer: 0.991

Question: For CAGTCAAGG, which switch fluorescence ratio is on record?
Answer: 0.943

Question: CAGTCAGACT was tested. Which switch fluorescence ratio did it give?
Answer: 1.02

Question: For CAGTCAGCTC, which switch fluorescence ratio is on record?
Answer: 1.07

Question: Which switch fluorescence ratio does the source give for CAGTCATAGT here?
Answer: 0.921

Question: Which switch fluorescence ratio does the source give for CAGTCGCGAC here?
Answer: 0.994

Question: Which switch fluorescence ratio does the source give for CAGTCTAGAC here?
Answer: 1.04

Question: How did the switch fluorescence ratio turn out when CAGTGAACGA was run?
Answer: 1.02

Question: CAGTGAAGGT was tested. Which switch fluorescence ratio did it give?
Answer: 0.977

Question: How did the switch fluorescence ratio turn out when CAGTGAGATT was run?
Answer: 0.977

Question: Which switch fluorescence ratio does the source give for CAGTGAGGG here?
Answer: 1.04

Question: Which switch fluorescence ratio does the source give for CAGTGCTCAG here?
Answer: 1

Question: How did the switch fluorescence ratio turn out when CAGTGTAAAG was run?
Answer: 1.02

Question: With CAGTGTCGTA as the sequence, how does the switch fluorescence ratio read?
Answer: 0.981

Question: Which switch fluorescence ratio does the source give for CAGTGTGTAG here?
Answer: 1.03

Question: CAGTTATCTG was tested. Which switch fluorescence ratio did it give?
Answer: 1

Question: How did the switch fluorescence ratio turn out when CAGTTGGTGG was run?
Answer: 0.993

Question: CAGTTGTGGC was tested. Which switch fluorescence ratio did it give?
Answer: 1.05

Question: For CAGTTTCTAG, which switch fluorescence ratio is on record?
Answer: 0.986

Question: For CAGTTTTTAA, which switch fluorescence ratio is on record?
Answer: 0.99

Question: CAGTTTTTTG was tested. Which switch fluorescence ratio did it give?
Answer: 0.949

Question: For CATAAAACCG, which switch fluorescence ratio is on record?
Answer: 0.992

Question: How did the switch fluorescence ratio turn out when CATAAAGTTA was run?
Answer: 1.02

Question: How did the switch fluorescence ratio turn out when CATAAATGCA was run?
Answer: 1.01

Question: How did the switch fluorescence ratio turn out when CATAACACCT was run?
Answer: 1.31

Question: How did the switch fluorescence ratio turn out when CATAACGATG was run?
Answer: 1.01

Question: With CATAACGCAG as the sequence, how does the switch fluorescence ratio read?
Answer: 1.03

Question: CATAAGACGG was tested. Which switch fluorescence ratio did it give?
Answer: 0.989

Question: For CATAAGAGGA, which switch fluorescence ratio is on record?
Answer: 1

Question: Which switch fluorescence ratio does the source give for CATAAGGCG here?
Answer: 0.985

Question: For CATAAGGTGC, which switch fluorescence ratio is on record?
Answer: 1.55

Question: For CATAAGTCCT, which switch fluorescence ratio is on record?
Answer: 1.02

Question: CATAATGCCG was tested. Which switch fluorescence ratio did it give?
Answer: 0.979

Question: With CATACATTTT as the sequence, how does the switch fluorescence ratio read?
Answer: 0.994

Question: For CATAGAAATG, which switch fluorescence ratio is on record?
Answer: 0.992

Question: CATAGACGTG was tested. Which switch fluorescence ratio did it give?
Answer: 1.01

Question: How did the switch fluorescence ratio turn out when CATAGTCCTT was run?
Answer: 1

Question: Which switch fluorescence ratio does the source give for CATAGTCTCT here?
Answer: 0.998

Question: With CATAGTTAGG as the sequence, how does the switch fluorescence ratio read?
Answer: 0.988

Question: For CATATAGTGT, which switch fluorescence ratio is on record?
Answer: 0.999

Question: CATATGGTAG was tested. Which switch fluorescence ratio did it give?
Answer: 1.03

Question: Which switch fluorescence ratio does the source give for CATATTTCCC here?
Answer: 0.973

Question: For CATCAAAACG, which switch fluorescence ratio is on record?
Answer: 0.995

Question: How did the switch fluorescence ratio turn out when CATCAAGACG was run?
Answer: 1.11

Question: For CATCAAGTCA, which switch fluorescence ratio is on record?
Answer: 0.97

Question: Which switch fluorescence ratio does the source give for CATCAGGAAG here?
Answer: 1.05

Question: Which switch fluorescence ratio does the source give for CATCAGGCCA here?
Answer: 1.04

Question: With CATCATAATC as the sequence, how does the switch fluorescence ratio read?
Answer: 1.05

Question: With CATCATTATC as the sequence, how does the switch fluorescence ratio read?
Answer: 1.01

Question: How did the switch fluorescence ratio turn out when CATCCAACTG was run?
Answer: 0.928

Question: With CATCCAGGGG as the sequence, how does the switch fluorescence ratio read?
Answer: 1.1

Question: CATCCGTTCC was tested. Which switch fluorescence ratio did it give?
Answer: 2.44

Question: Which switch fluorescence ratio does the source give for CATCCTCCCA here?
Answer: 1.08

Question: For CATCCTGCGC, which switch fluorescence ratio is on record?
Answer: 3.7

Question: CATCGACACA was tested. Which switch fluorescence ratio did it give?
Answer: 1.02

Question: CATCGAGTCG was tested. Which switch fluorescence ratio did it give?
Answer: 1.04

Question: CATCGATTAG was tested. Which switch fluorescence ratio did it give?
Answer: 0.956

Question: For CATCGGCGGG, which switch fluorescence ratio is on record?
Answer: 1.04

Question: How did the switch fluorescence ratio turn out when CATCGGGCCG was run?
Answer: 0.97

Question: CATCTAACAC was tested. Which switch fluorescence ratio did it give?
Answer: 1.08

Question: For CATCTATAAT, which switch fluorescence ratio is on record?
Answer: 0.995

Question: With CATCTATGTT as the sequence, how does the switch fluorescence ratio read?
Answer: 1.03

Question: CATCTATTTC was tested. Which switch fluorescence ratio did it give?
Answer: 1.07

Question: With CATCTCACC as the sequence, how does the switch fluorescence ratio read?
Answer: 1.04

Question: How did the switch fluorescence ratio turn out when CATCTGACTA was run?
Answer: 1.05

Question: For CATCTGTATG, which switch fluorescence ratio is on record?
Answer: 1.01

Question: Which switch fluorescence ratio does the source give for CATCTTAGGT here?
Answer: 1.05

Question: CATCTTGTCT was tested. Which switch fluorescence ratio did it give?
Answer: 0.999

Question: CATGAAAGAT was tested. Which switch fluorescence ratio did it give?
Answer: 0.971

Question: How did the switch fluorescence ratio turn out when CATGAACGTG was run?
Answer: 0.996

Question: For CATGAAGGGA, which switch fluorescence ratio is on record?
Answer: 1.04

Question: Which switch fluorescence ratio does the source give for CATGACATTC here?
Answer: 1.04

Question: CATGACCTCA was tested. Which switch fluorescence ratio did it give?
Answer: 1.05

Question: For CATGAGAG, which switch fluorescence ratio is on record?
Answer: 0.975

Question: CATGAGTCG was tested. Which switch fluorescence ratio did it give?
Answer: 0.985

Question: For CATGATAAAT, which switch fluorescence ratio is on record?
Answer: 1.02

Question: For CATGCAAGCG, which switch fluorescence ratio is on record?
Answer: 1.05

Question: With CATGCAGGGG as the sequence, how does the switch fluorescence ratio read?
Answer: 1.11
